Changes are numbered by the printed parent chain; changes in the protein carry UniProt numbers. This is one part of the list.
T1: RBFOX1 RRM (Homo sapiens, UniProt Q9NWB1 109-208)
T1 sequence: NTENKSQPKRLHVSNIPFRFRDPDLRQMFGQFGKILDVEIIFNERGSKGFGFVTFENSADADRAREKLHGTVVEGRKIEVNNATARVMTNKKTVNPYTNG

B1: UGUCGAU (DNA:RNA)
RNA: GGGAGACCGGAAUUCAGAUUGUCCUGUCGAUUUAAAUCCCGUCGUAGCCACCA
DNA 1: CAATCTGAATTCCGGTCTCCC
DNA 2: TGGTGGCTACGACGGGATT
B2: CGUUUUU (DNA:RNA)
RNA: B1 RNA with U25C, C28U, G29U, A30U
DNA 1: CAATCTGAATTCCGGTCTCCC
DNA 2: TGGTGGCTACGACGGGATT
B3: UCUUAAU (DNA:RNA)
RNA: B1 RNA with G26C, C28U, G29A
DNA 1: CAATCTGAATTCCGGTCTCCC
DNA 2: TGGTGGCTACGACGGGATT
B4: GGCGUUU (DNA:RNA)
RNA: B1 RNA with U25G, U27C, C28G, G29U, A30U
DNA 1: CAATCTGAATTCCGGTCTCCC
DNA 2: TGGTGGCTACGACGGGATT
B5: AGGGUGG (DNA:RNA)
RNA: B1 RNA with U25A, U27G, C28G, G29U, A30G, U31G
DNA 1: CAATCTGAATTCCGGTCTCCC
DNA 2: TGGTGGCTACGACGGGATT
B6: AUCAUUC (DNA:RNA)
RNA: GGGAGACCGGAAUUCAGAUUGUCCAUCAUUCUUAAAUCCCGUCGUAGCCACCA
DNA 1: CAATCTGAATTCCGGTCTCCC
DNA 2: TGGTGGCTACGACGGGATT
B7: CGCAGCG (DNA:RNA)
RNA: B6 RNA with A25C, U26G, U29G, U30C, C31G
DNA 1: CAATCTGAATTCCGGTCTCCC
DNA 2: TGGTGGCTACGACGGGATT
B8: GCUAGAG (DNA:RNA)
RNA: B1 RNA with U25G, G26C, C28A, U31G
DNA 1: CAATCTGAATTCCGGTCTCCC
DNA 2: TGGTGGCTACGACGGGATT
B9: CGGCAGA (DNA:RNA)
RNA: B1 RNA with U25C, U27G, G29A, A30G, U31A
DNA 1: CAATCTGAATTCCGGTCTCCC
DNA 2: TGGTGGCTACGACGGGATT

What follows are binders tested against T1, RBFOX1 RRM (assay: EMSA; HiTS-Eq, 1 nM pool, 10 min; buffer printed only for the single-RNA assays: 10 mM Tris pH 7.5, 150 mM NaCl, 3.4 mM EDTA, 0.001% NP-40, 30 C). Conditions: tags: His6 N-terminal (pET28a); label: 5' 32P.
Procedure, shortened: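 Purified RbFox RRM (wild type or mutant) was equilibrated for 10 min in 50 µL with 1 nM of a 5′-radiolabelled pool of RNA with 7 randomized nucleotides, its flanks annealed to DNA oligonucleotides, across increasing protein concentrations. Free RNA was separated by 8% native PAGE, excised, reverse-transcribed, PCR-barcoded and sequenced on an Illumina HiSeq 2500. Relative association constants came from read-count changes of each variant against the control reaction, normalised to the cognate motif.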

With B1 as the binder, how does the binding signal read?
Its binding signal is 0.0236 KA relative to UGCAUGU.

With B2 as the binder, how does the binding signal read?
The binding signal was 0.0111 KA relative to UGCAUGU.

With B3 as the binder, how does the binding signal read?
The binding signal was 0.00441 KA relative to UGCAUGU.

With B4 as the binder, how does the binding signal read?
The binding signal was 0.0145 KA relative to UGCAUGU.

For B5, which binding signal is on record?
Its binding signal is 0.0193 KA relative to UGCAUGU.

How did the binding signal turn out when B6 was run?
Its binding signal is 0.00342 KA relative to UGCAUGU.

How did the binding signal turn out when B7 was run?
Its binding signal is 0.0102 KA relative to UGCAUGU.

B8 was tested. Which binding signal did it give?
Its binding signal is 0.0161 KA relative to UGCAUGU.

Which binding signal does the source give for B9 here?
Its binding signal is 0.0139 KA relative to UGCAUGU.

Reference: publication PMC9911399, “Two distinct binding modes provide the RNA-binding protein RbFox with extraordinary sequence specificity”
